Assay results taken from PubChem BioAssay AID360 (National Center for Advancing Translational Sciences (NCATS), 2006).
Hit rate of the full screen: of about 48,000 compounds, about 550 (1.1%) were called active. Inconclusive results (about 4%) are left out. No stated cut-off is given here; in the data, active means potency below about 15 µM; inconclusive means mostly about 16 µM to 33 µM; inactive means weaker than that. The list shows a part of the results.

molecular target: Lysosomal acid glucosylceramidase (Homo sapiens) (UniProt P04062); test: Glucocerebrosidase; settings: purified enzyme, resorufin glucoside fluorescence (screen aimed at inhibitors), 20 min;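 further: the screen sought inhibitors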
Sequence of UniProt P04062 (P04062 whole entry, looked up): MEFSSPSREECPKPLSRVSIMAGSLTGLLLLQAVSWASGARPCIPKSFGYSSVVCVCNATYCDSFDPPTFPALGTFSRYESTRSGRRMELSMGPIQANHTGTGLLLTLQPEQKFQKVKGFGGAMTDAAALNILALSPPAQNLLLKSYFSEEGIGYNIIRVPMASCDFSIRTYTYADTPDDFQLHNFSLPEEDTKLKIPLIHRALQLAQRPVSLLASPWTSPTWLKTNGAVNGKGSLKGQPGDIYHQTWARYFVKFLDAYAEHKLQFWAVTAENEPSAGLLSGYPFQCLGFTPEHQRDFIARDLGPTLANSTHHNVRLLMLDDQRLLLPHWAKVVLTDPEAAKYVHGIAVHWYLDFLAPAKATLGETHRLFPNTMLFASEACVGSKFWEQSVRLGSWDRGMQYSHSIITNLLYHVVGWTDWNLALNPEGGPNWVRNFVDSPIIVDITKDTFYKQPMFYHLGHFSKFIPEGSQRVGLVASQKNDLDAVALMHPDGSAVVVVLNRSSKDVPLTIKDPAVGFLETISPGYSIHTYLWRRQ
Summary of the method: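 Normal human glucocerebrosidase (0.2 nM final) was assayed with resorufin β-D-glucopyranoside (30 uM final) in 50mM citric acid/KH2PO4, 10mM sodium taurocholate, 0.01% tween-20, pH 5.9. Compounds were titrated; fluorescence (Ex 548, Em 600) read after 20 min at RT.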
Potency means the concentration at half of the fitted maximal effect.

Potency, inactive:
COC(=O)CC(C(=O)Nc1cc(C(=O)OC)cc(C(=O)OC)c1)N1CCN(C)CC1 (stereo unspecified) > 76.9 µM
CCN(CC)CCCN1C(=O)C(=O)/C(=C(/O)c2ccc3c(c2)OCCO3)C1c1ccc(C)o1 (stereo unspecified) > 76.9 µM
O=C(CCn1nc(-c2ccc(Cl)cc2)ccc1=O)NCCCN1CCCCCC1 > 76.9 µM
COc1ccc(NC(=O)CSc2nnc(Cc3cccn3C)n2-c2ccc(C)cc2)cc1OC > 76.9 µM
Cc1ccc(SCCCn2cncn2)cc1 > 76.9 µM
CCOC(=O)C1CCCN(C(=O)C2CCN(Cc3nc(-c4ccc(Cl)cc4)oc3C)CC2)C1 (stereo unspecified) > 76.9 µM
CCOc1ccc(OCC)c(S(=O)(=O)N2CCCCC2)c1 > 76.9 µM
CC(C)OC(=O)CSc1nnc(-c2ccc(Cl)cc2Cl)n1N > 76.9 µM
O=C(CCn1c(=O)c2ccccc2n(Cc2cc(=O)n3ccccc3n2)c1=O)NCc1ccco1 > 76.9 µM
COc1ccccc1NC(=O)N(Cc1ccccc1)c1ccccn1 > 76.9 µM
COCCn1nnnc1C(c1cc2ccc(OC)cc2[nH]c1=O)N1CCc2ccccc2C1 (stereo unspecified) > 76.9 µM
O=C1CCCC(O)=C1C=Nc1ccc2c(c1)oc1ccccc12 > 76.9 µM
Cn1c(=O)c2cc(S(=O)(=O)NCCC(=O)NCC3CCCO3)ccc2n(C)c1=O (stereo unspecified) > 76.9 µM
O=C(CN(CCc1ccccc1)C(=O)CNS(=O)(=O)c1ccc(F)cc1)NCC1CCCO1 (stereo unspecified) > 76.9 µM
CCCc1cc(=O)n2[nH]c(SCc3ccccc3)nc2n1 > 76.9 µM
O=C(CN(Cc1ccco1)C(=O)CCC(=O)Nc1ccccn1)NCCc1ccccc1 > 76.9 µM
COc1cc2[nH]c(=O)n(CCCCCC(=O)NCCCN3CCCC3=O)c(=O)c2cc1OC > 76.9 µM
Cc1ccc(NC(=O)CS(=O)CC(=O)NC2CCN(Cc3ccccc3)CC2)c(C)c1 (stereo unspecified) > 76.9 µM
Cc1ccc(C)c(NC(=O)C2CC(=O)N(C(C)C)C2)c1 (stereo unspecified) > 76.9 µM
O=C(CSc1oc(-c2ccco2)nc1S(=O)(=O)c1ccc(F)cc1)NCC1CCCO1 (stereo unspecified)
CCCCn1c(SCC(=O)Nc2cccc(OC)c2)nc2ccc(N3CCOCC3)cc2c1=O > 76.9 µM
O=C(CSc1nc(-c2ccc(F)cc2)cs1)N1CCN(C(=O)c2ccco2)CC1 > 76.9 µM
Cc1cc(C)nc(SC2=CS(=O)(=O)c3ccccc32)n1 > 76.9 µM
CC(=O)NC(Cc1ccccc1F)C(=O)NC1CCN(C(=O)c2cnccn2)CC1 (stereo unspecified) > 76.9 µM
COc1ccccc1NC(=O)c1sc2nc(-c3ccco3)ccc2c1N > 76.9 µM
COc1cc(C)nc(NS(=O)(=O)c2ccc(C)cc2)n1 > 76.9 µM
COC(=O)c1ccc2c(=O)n(CC3CCCO3)c(=S)[nH]c2c1 (stereo unspecified) > 76.9 µM
CCn1c(Cc2ccccc2)nnc1SCC(=O)Nc1ccc(N2CCOCC2)c(Cl)c1 > 76.9 µM
O=C(CCn1c(=O)sc2ccccc21)NCCCn1ccnc1 > 76.9 µM
Cc1ccc(-n2nc3c(c2NC(=O)c2ccc(Br)o2)CSC3)c(C)c1 > 76.9 µM
O=C(Cn1nc(Cl)nc1Cl)Nc1ccccc1 > 76.9 µM
COc1cc(NC(=O)Nc2ccccc2OC)c(OC)cc1NC(=O)CN1CCCCC1 > 76.9 µM
N=c1c(C(=O)NC2CCCC2)cc2c(=O)n3ccccc3nc2n1CCN1CCOCC1 > 76.9 µM
C=CCn1c(SCC(=O)Nc2ccccc2OC)nnc1-c1ccccn1 > 76.9 µM
COC(=O)Cc1csc(Nc2c(C)n(C)n(-c3ccccc3)c2=O)n1 > 76.9 µM
CCCCn1nnnc1NCc1ccc(N2CCCC2)cc1 > 76.9 µM
Cc1ccc(C)n1CCN1CCN(CC(=O)Nc2ccc(S(N)(=O)=O)cc2)CC1 > 76.9 µM
COc1ccc(OCc2cccc(C(=O)O)c2)cc1 > 76.9 µM
CC(C)COCC1CC2(CC(C)C(=O)CC2=O)C(=O)O1 (stereo unspecified) > 76.9 µM
CCOc1ccccc1C1CC(=O)Nc2cc3c(cc21)OCCO3 (stereo unspecified) > 76.9 µM
COCCCN1CN(S(=O)(=O)c2ccc(Cl)cc2)c2nc3ccccc3nc21
CSc1nc(C)cc(Oc2ccc(=O)n(C)n2)n1 > 76.9 µM
CCS(=O)(=O)N1CCCC(C(=O)NCCCOC)C1 (stereo unspecified) > 76.9 µM
CCOC(=O)c1cnc(SCc2ccc(C)cc2)nc1N > 76.9 µM
CCCCn1c(SCc2nnc(-c3ccccc3)o2)nc2c1c(=O)n(C)c(=O)n2C > 76.9 µM
CN(C)c1ccc(/C=C/c2cc[n+]([O-])cc2)cc1 > 76.9 µM
O=C1CCc2cc(S(=O)(=O)NCCC(=O)N3CCN(c4cccc(Cl)c4)CC3)ccc2N1 > 76.9 µM
COc1ccc(CN2CC(C(=O)NCCCN3CCN(C)CC3)CC2=O)cc1 (stereo unspecified) > 76.9 µM
CCn1c(N)c(C(=O)NC)sc1=S > 76.9 µM
O=C(NC1CCCC1)c1cccnc1N1CCCCCC1 > 76.9 µM
Cc1ccc(N=C(c2cccs2)N2CCOCC2)cc1 > 76.9 µM
CCN(CC)S(=O)(=O)c1cccc(-c2nnc(SCCOc3ccc(Cl)cc3)o2)c1 > 76.9 µM
C=CCOC(=O)Nc1ccc(Cl)cc1NC(=O)OCC=C > 76.9 µM
COC(=O)C1C(=O)C2=C(CC1C)NC(=O)CC2c1ccc(O)c(OC)c1 (stereo unspecified) > 76.9 µM
COC(=O)NC1CSCC1OC(=O)CCN1C(=O)c2ccccc2C1=O (stereo unspecified) > 76.9 µM
O=C(CN1CCN(C(=O)c2ccco2)CC1)Nc1ccc(Cl)c(C(F)(F)F)c1 > 76.9 µM
COc1ccc(C)cc1NC(=O)CN(C)S(=O)(=O)c1cccs1 > 76.9 µM
CCn1c(N)c(C(=O)NCc2cccnc2)sc1=S > 76.9 µM
CC1(C)CC(=O)C2=C(C1)NCN(CCCN1CCOCC1)C2 > 76.9 µM
COc1ccc(S(=O)(=O)N2CCCC2C(=O)Nn2cnnc2)cc1 (stereo unspecified) > 76.9 µM
CCOc1cc(NC(=O)c2ccco2)c(OCC)cc1NC(=O)Cc1cccc(OC)c1
O=C(NCC(c1cccnc1)N1CCN(c2ccccc2F)CC1)C1CCCCC1 (stereo unspecified) > 76.9 µM
COc1cccc(CNc2nn[nH]n2)c1OC > 76.9 µM
COc1ccc(OCc2ccc(C(=O)O)cc2)cc1 > 76.9 µM
O=C(Nc1ccc2c(c1)OCCO2)c1cccnc1 > 76.9 µM
C/C(Cl)=C\CNC(C)c1ccccc1 (stereo unspecified) > 76.9 µM
c1ccc(CSc2nnnn2-c2ccc3c(c2)OCCO3)nc1 > 76.9 µM
CCCCOC(=O)n1ccc(C(=O)Nc2ccccc2OC)n1 > 76.9 µM
O=c1[nH]c(N2CCc3ccccc32)nc2c1CCCC2 > 76.9 µM
CCC(c1nnnn1CS(=O)(=O)c1ccc(C)cc1)N1CCN(c2nc3ccccc3s2)CC1 (stereo unspecified) > 76.9 µM
CCCC(=O)OCCn1c(Br)nc2c1c(=O)[nH]c(=O)n2C > 76.9 µM
COc1cc(NC(=O)c2ccco2)c(OC)cc1NC(=O)CCC(=O)Nc1cccc(C)c1C > 76.9 µM
CC(CP(=O)(O)O)NC(=O)Cc1ccccc1 (stereo unspecified) > 76.9 µM
CC(C)CC(=O)NC1(C(F)(F)F)C(=O)Nc2c1c(=O)[nH]c(=O)n2Cc1ccco1 (stereo unspecified) > 76.9 µM
O=C(O)CCCC(=O)Nc1ccc(N2CCCC2)cc1 > 76.9 µM
O=c1c2ccccc2nc(SCc2cn3ccsc3n2)n1-c1ccc(F)cc1 > 76.9 µM
CCOC(=O)C1=C(C)N=C2SC(CC)C(=O)N2C1c1ccc(OC(C)=O)c(OCC)c1 (stereo unspecified) > 76.9 µM
COCCNC(=S)c1ccc(OC)cc1 > 76.9 µM
COc1ccc(CCNc2nc(C)nc3c2oc2ccccc23)cc1OC > 76.9 µM
CCN1C(=O)C(C(=O)NC(C)c2ccccc2)C2CC1(C)Oc1ccccc12 (stereo unspecified) > 76.9 µM
COc1ccc2c(c1)[nH]c1c(=O)n(CCN3CCCC3)cnc12 > 76.9 µM
Cn1c(=O)c2cn3ncccc3c2n(C)c1=O > 76.9 µM
O=C(NCc1ccc(F)cc1)c1noc2c1CCCCC2 > 76.9 µM
CCCC(C)(C)NC(=O)CCCCC(=O)NC(C)(C)CCC > 76.9 µM
COc1ccccc1NC(=O)CN1C(=O)C(C)Oc2ccccc21 (stereo unspecified) > 76.9 µM
CCn1c(SCC(=O)N2CCN(c3ccccc3)CC2)nnc1-c1cc2cc(Cl)ccc2o1 > 76.9 µM
Cc1nc(C)n(CC(O)COc2ccc3c(c2)CCC3)n1 (stereo unspecified) > 76.9 µM
c1ccc(CNc2ncnc3c2ncn3C2CCCCO2)cc1 (stereo unspecified) > 76.9 µM
Cc1nn(-c2cccc(Cl)c2)c2c1C(c1cccnc1)C(C#N)=C(N)O2 (stereo unspecified) > 76.9 µM
CNC(=O)CSc1nnc(CCc2ccccc2)n1-c1ccccc1 > 76.9 µM
CC(C)C(=O)Nc1cccc(NC(=O)c2cccnc2)c1 > 76.9 µM
